Laboratory results from the supplement of paper PMC8047034.
Counter-ions that a name gives are not always drawn. The list shows a part of the results. Single values are uncertain, as repeats are few or missing.

Assays:
[1] = test system: OVCAR4; assay: log2 surviving fraction (library drug vs vehicle, or drug + carboplatin vs carboplatin alone; relative to plate median); ovarian cancer lines: OVCAR4 is platinum-sensitive and Ov4Carbo platinum-resistant; higher = more cell survival; details: library drug concentration 10 µM, 7 days
[2] = test system: Ov4Carbo; assay: as above; details: library drug concentration 10 µM, 7 days

Structure (SMILES)	log2 surviving fraction ([1]; carboplatin co-treatment 0 µM)	log2 surviving fraction ([1]; carboplatin co-treatment 5 µM)	log2 surviving fraction ([2]; carboplatin co-treatment 0 µM)	log2 surviving fraction ([2]; carboplatin co-treatment 5 µM)
N[C@@H](Cc1ccc(O)c(O)c1)C(=O)O [Levodopa (Sinemet)]	-2.43	0.353	-0.223	0.296
Cc1cc(NS(=O)(=O)c2ccc(N)cc2)no1 [Sulfamethoxazole]	1.2	1.4	0.772	-0.00576
CCc1ccc(CCOc2ccc(CC3SC(=O)NC3=O)cc2)nc1 (stereo not given) [Pioglitazone (Actos)]	-0.185	-0.307	-0.0516	-0.184
CC(C)n1c(/C=C/C(O)CC(O)CC(=O)O)c(-c2ccc(F)cc2)c2ccccc21 (stereo not given) [Fluvastatin sodium (Lescol)]	-5.65	-4.29	-4.17	-3.32
Cc1cccc([C@H](C)c2c[nH]cn2)c1C [Dexmedetomidine]	0.419	-1.52	0.615	1.23
Cc1ccc(S(=O)(=O)NC(=O)NN2CC3CCCC3C2)cc1 (stereo not given) [Gliclazide (Diamicron)]	-0.282	0.0783	0.768	0.573
CC(=O)Nc1ncc([N+](=O)[O-])s1 [Nithiamide]	1.51	1.59	2.35	0.834
Cn1cnc([N+](=O)[O-])c1Sc1ncnc2[nH]cnc12 [Azathioprine (Azasan, Imuran)]	-2.43	-1.52	-2.45	-2.49
Nc1c2ccccc2nc2ccccc12 [9-Aminoacridine]	-9.4	-7.49	-8.12	-7.7
Nc1nc(F)nc2c1ncn2[C@@H]1O[C@H](CO)[C@@H](O)[C@@H]1O [Fludarabine (Fludara)]	-0.345	-1.64	-2.38	-1.3
CCCCC(C)(O)C/C=C/[C@H]1[C@H](O)CC(=O)[C@@H]1CCCCCCC(=O)OC (mixture of isomers) [Misoprostol]	-1	1.37	-0.512	-2.39
O=C(O)c1cc(-c2ccccc2)nc2ccccc12 [Cinchophen]	0.29	-0.288	0.485	-0.613
CN(N=O)C(=O)N[C@@H](C=O)[C@@H](O)[C@H](O)[C@H](O)CO [Streptozotocin (Zanosar)]	-0.757	1.11	0.457	0.322
CCCCOc1cc(C(=O)OCCN(CC)CC)ccc1N [Oxybuprocaine HCl]	0.271	-0.0373	0.929	0.617
C#CCN(C)CCCOc1ccc(Cl)cc1Cl [Clorgyline HCl]	-0.276	0.133	0.608	-0.331
CN[C@H](CC(C)C)C(=O)N[C@H]1C(=O)N[C@@H](CC(N)=O)C(=O)N[C@H]2C(=O)N[C@H]3C(=O)N[C@H](C(=O)N[C@H](C(=O)O)c4cc(O)cc(O)c4-c4cc3ccc4O)[C@H](O)c3ccc(c(Cl)c3)Oc3cc2cc(c3O[C@@H]2O[C@H](CO)[C@@H](O)[C@H](O)[C@H]2O[C@H]2C[C@](C)(N)[C@H](O)[C@H](C)O2)Oc2ccc(cc2Cl)[C@H]1O [Vancomycin HCl (Vancocin)]	-0.0355	0.604	0.548	0.318
Nc1nc(N)nc(-c2cc(Cl)ccc2Cl)n1 [Irsogladine]	0.165	0.203	-0.408	0.73
CCOC(=O)[C@H](CCc1ccccc1)N[C@@H](C)C(=O)N1C(=O)N(C)C[C@H]1C(=O)O [Imidapril (Tanatril)]	-0.494	0.807	0.276	0.353
OC(CNCC(O)C1CCc2cc(F)ccc2O1)C1CCc2cc(F)ccc2O1 (stereo not given) [Nebivolol (Bystolic)]	-6.94	-6.17	-6.96	-6.63
CC1CC(OC(=O)C(O)c2ccccc2)CC(C)(C)C1 (stereo not given) [Cyclandelate]	-0.0541	-1.07	-0.0147	-0.776
CCC(NC(C)C)C(O)c1ccc(O)c(O)c1 (stereo not given) [Isoetharine Mesylate]	-0.753	-0.308	-1.11	-0.282
CC(C)(O/N=C(\C(=O)N[C@@H]1C(=O)N2C(C(=O)[O-])=C(C[n+]3ccccc3)CS[C@H]12)c1csc(N)n1)C(=O)O [Ceftazidime Pentahydrate]	-0.284	-0.00321	0.0332	0.527
CC[C@@H]1/C=C(\C)C[C@H](C)C[C@H](OC)[C@H]2O[C@@](O)(C(=O)C(=O)N3CCCC[C@H]3C(=O)O[C@H](/C(C)=C/[C@@H]3CC[C@H](Cl)[C@H](OC)C3)[C@H](C)[C@@H](O)CC1=O)[C@H](C)C[C@@H]2OC [Pimecrolimus]	-1.91	-1.84	-1.68	-1.04
CC(C)c1c(CN(C)C(C)Cc2ccccc2)n(C)n(-c2ccccc2)c1=O (stereo not given) [Famprofazone]	0.201	0.0261	0.386	-0.798
Cc1cc(=O)[nH]c(=S)[nH]1 [Methylthiouracil]	0.35	0.177	0.0473	-0.22
CCCc1ncc(C[n+]2ccccc2C)c(N)n1 [Amprolium HCl]	0.906	1.46	0.608	0.72
NCCC(O)(P(=O)(O)O)P(=O)(O)O [Pamidronate Disodium]	0.63	2.1	1.21	-0.0745
Cc1cccc(Nc2ccncc2S(=O)(=O)NC(=O)NC(C)C)c1 [Torsemide (Demadex)]	0.586	0.0937	0.0175	-0.206
C[C@H]1NC(=O)NC1=O [Methylhydantoin-5-(D)]	1.1	0.0128	0.419	1.17
NC(=O)C(c1ccccc1)(c1ccccc1)[C@@H]1CCN(CCc2ccc3c(c2)CCO3)C1 [Darifenacin HBr]	-2.01	-1.82	-3.83	-2.44
